The text below walks through data of PubChem BioAssay AID258 (DTP/NCI, 2004).

This assay concerns CD2F1 mice, L1210 leukemia sc, survival T/C. Description: NCI In Vivo Anticancer Drug Screen. Data for tumor model L1210 Leukemia (subcutaneous) in CD2F1 (CDF1) mice. To be noted: endpoint: median survival time, higher = longer survival. The protocol:
The antitumor activity of compounds was measured in mice bearing transplantable tumors. Survival or tumor size were measured and the results are expressed as the measurement made in the treated group (T) divided by the measurement made in the vehicle treated control group (C). The tumor model used in this assay is L1210 Leukemia (subcutaneous) in CD2F1 (CDF1) mice

Inconclusive results and toxic doses are left out. A number of entries come with more than one value. They are shown here; other results are not. An entry can have further records. The values listed for one entry are repeated measurements in other runs, samples, wells, individuals or studies.

As to `C1CN1c1nc(N2CC2)nc(N2CC2)n1`, the T/C (dose: 0.8 mg/kg/injection, schedule: Q01DX009 (sc), vehicle: saline) was 107 % of control and 164 % of control. As to `Cc1ccc(NCCN(C)C)c2c(=O)c3cc(O)ccc3sc12`, for the setting “dose: 100.0 mg/kg/injection, schedule: Q01DX009 (ip), vehicle: Klucel (hydroxypropylcellulose) (HPC)”, the T/C was 94 % of control and 172 % of control. On to `COc1ccc2[nH]c3ccc4cc[n+](CCN5CCC(C6CCN(CC[n+]7ccc8ccc9[nH]c%10ccc(OC)cc%10c9c8c7)CC6)CC5)cc4c3c2c1`, for which, for the setting “dose: 25.0 mg/kg/injection, schedule: Q01DX009 (ip), vehicle: Klucel (hydroxypropylcellulose) (HPC)”, the T/C was 117 % of control and 151 % of control. `O=NN(CCCl)C(=O)NC1CCCCC1`: the T/C (dose: 14.0 mg/kg/injection, schedule: Q01DX Z (sc), vehicle: carboxymethylcellulose (CMC)) is 112 % of control, 277 % of control, 481 % of control. As to `S=c1nc[nH]c2nc[nH]c12`, the T/C (dose: 108.0 mg/kg/injection, schedule: Q01DX Z (sc), vehicle: methylcellulose (MC)) is 118 % of control and 150 % of control. For the molecule `CCOC(=O)C(CC(C)C)NC(=O)C(Cc1ccc(N(CCCl)CCCl)cc1)NC(C)=O` (configuration not stated), the T/C (dose: 256.0 mg/kg/injection, schedule: Q01DX009 (sc), vehicle: Klucel (hydroxypropylcellulose) (HPC)) was 117 % of control and 162 % of control. Take `O=NNc1cnccn1`: the T/C (dose: 40.0 mg/kg/injection, schedule: Q01DX009 (ip), vehicle: water) was 100 % of control and 179 % of control. For the molecule `N[C@@H](Cc1ccc(N(CCCl)CCCl)cc1)C(=O)O`, the T/C is 105 % of control and 162 % of control (dose: 8.0 mg/kg/injection, schedule: Q01DX009 (sc), vehicle: saline); 102 % of control and 161 % of control (dose: 10.0 mg/kg/injection, schedule: Q01DX009 (ip), vehicle: saline). Consider `CN(Cc1cnc2nc(N)nc(N)c2n1)c1c(Cl)cc(C(=O)NC(CCC(=O)O)C(=O)O)cc1Cl` (configuration not stated), for which the T/C (dose: 208.0 mg/kg/injection, schedule: Q01DX Z (oral), vehicle: other) was 118 % of control, 154 % of control, 165 % of control. For the molecule `O=c1[nH]cc(F)c(=O)[nH]1`, the T/C (dose: 20.0 mg/kg/injection, schedule: Q01DX009 (ip), vehicle: saline) is 116 % of control and 153 % of control.

Regarding `CN(C)/N=N/c1nc[nH]c1C(N)=O`, the T/C (dose: 75.0 mg/kg/injection, schedule: Q01DX009 (sc), vehicle: saline) is 109 % of control and 156 % of control.
